Out of some 310,000 compounds screened, about 2,200 (0.71%) showed an effect of 50% or more. The effect is printed as a negative number. Some of the results follow.
What follows are compounds tested against human ether-à-go-go-related gene (hERG) potassium channel (human, UniProt Q12809) (assay: primary screen, population patch clamp on CHO cells stably expressing hERG).
Sequence of human ether-à-go-go-related gene (hERG) potassium channel (Q12809 whole entry, looked up): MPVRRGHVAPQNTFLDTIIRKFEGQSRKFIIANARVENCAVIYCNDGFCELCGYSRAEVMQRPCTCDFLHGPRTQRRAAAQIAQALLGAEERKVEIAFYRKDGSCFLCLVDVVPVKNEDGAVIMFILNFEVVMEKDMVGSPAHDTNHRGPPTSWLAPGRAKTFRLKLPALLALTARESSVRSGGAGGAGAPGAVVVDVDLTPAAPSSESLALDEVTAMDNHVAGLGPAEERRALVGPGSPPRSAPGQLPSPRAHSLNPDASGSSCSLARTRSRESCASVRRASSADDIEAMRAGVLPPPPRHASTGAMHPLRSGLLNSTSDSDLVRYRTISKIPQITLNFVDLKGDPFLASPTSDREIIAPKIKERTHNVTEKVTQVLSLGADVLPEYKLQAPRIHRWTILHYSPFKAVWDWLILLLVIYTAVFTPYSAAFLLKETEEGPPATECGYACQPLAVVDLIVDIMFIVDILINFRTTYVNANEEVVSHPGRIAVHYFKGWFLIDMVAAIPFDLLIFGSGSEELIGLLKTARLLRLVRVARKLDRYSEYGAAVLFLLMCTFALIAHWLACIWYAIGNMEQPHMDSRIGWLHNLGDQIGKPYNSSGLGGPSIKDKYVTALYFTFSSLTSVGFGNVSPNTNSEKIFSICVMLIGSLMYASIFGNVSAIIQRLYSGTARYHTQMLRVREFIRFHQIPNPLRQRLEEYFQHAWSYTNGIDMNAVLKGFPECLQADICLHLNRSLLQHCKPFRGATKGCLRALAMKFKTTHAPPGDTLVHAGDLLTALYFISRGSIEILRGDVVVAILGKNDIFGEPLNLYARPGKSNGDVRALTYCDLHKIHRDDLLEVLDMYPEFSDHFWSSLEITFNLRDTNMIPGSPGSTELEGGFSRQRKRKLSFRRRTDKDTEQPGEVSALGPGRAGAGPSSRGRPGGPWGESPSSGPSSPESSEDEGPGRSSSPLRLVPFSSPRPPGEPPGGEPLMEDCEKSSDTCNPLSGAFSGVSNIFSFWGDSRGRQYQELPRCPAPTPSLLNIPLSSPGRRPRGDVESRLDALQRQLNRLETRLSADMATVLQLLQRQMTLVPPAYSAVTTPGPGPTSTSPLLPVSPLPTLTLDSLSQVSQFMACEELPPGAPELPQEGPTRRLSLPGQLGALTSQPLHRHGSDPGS

SMILES	hERG current change (%, negative = inhibition) at 1uM [%]
CCCCN(C(=O)c1ccccc1OCc1ccc(F)cc1)c1c(N)n(CCC)c(=O)[nH]c1=O	10.3
Cn1c(CO)nc2c3ccccc3ccc21	19.6
COc1cccc(-c2ncc3ccccc3c2COC(=O)N(C)C)c1	7.62
Cc1cc(C)c(C)c(OCCN2CCOCC2)c1	7.61
Cc1ccc(NC(=O)C(=O)NCCCN2CC(C(=O)O)CC2=O)cc1 (stereo not shown)	10.2
CCC(C)Nc1cc(C)c(C#N)c2nc3ccccc3n12 (stereo not shown)	1.9
CCN(CC)C(=O)NCc1c(C)cc(C)cc1C	12.4
O=C(Cn1nnc2ccccc21)Nc1ccc([N+](=O)[O-])cc1	16.1
Cl.O=C(Nc1ccc(N2CCN(Cc3ccccc3F)CC2)cc1)c1ccccc1[N+](=O)[O-]	2.83
COc1ccccc1NC(=O)c1sc2nc(C)cc(C)c2c1N	7.66
CCOC(=O)C(=O)C1=C(N2CCOCC2)/C(=C\c2cccc([N+](=O)[O-])c2)CC1	-6.27
CC1CN(C(=O)C2(C)CC2(Br)Br)CC(C)O1 (stereo not shown)	-0.389
COC(=O)CCC(=O)Nc1ccc(S(=O)(=O)Nc2nc(C)cc(C)n2)cc1	11.5
O=C(CN1CCC(C(=O)c2ccc3c(c2)OCCO3)CC1)NCc1ccccc1	7.23
COCCn1c(SCC(=O)/C=C2\N(C)c3ccccc3C2(C)C)nnc1-c1ccncc1	-19.3
O=C(CSc1nccc(=O)[nH]1)Nc1ccc(S(=O)(=O)N2CCOCC2)cc1	10.5
COc1ccc(CCNC(=O)C(=O)NCC2CCCN2S(=O)(=O)c2cccs2)cc1OC (stereo not shown)	-1.78
CNC(=S)N/N=C/c1c(C)c(C(=O)c2ccc(F)cc2)n2ccccc12	12.9
S=C1NC(c2ccccc2)=NCN1c1ccc(Cl)cc1	5.04
COc1ccc(-c2cc3nc(C)cc(N4CC(C)CC(C)C4)n3n2)cc1 (stereo not shown)	8.98
COc1ccc(Br)cc1/C=N/NC(=O)CNC(=O)c1cccnc1	22.4
Clc1cccc(NCc2nnc3n2CCCCC3)c1	10.3

SMILES	hERG current change (%, negative = inhibition) at 1uM [%]
CCOC(=O)c1cc(NC(=O)CSCCO)ccc1Cl	3.13
COc1cccc(C(=O)c2c[nH]c(C(=O)NCc3ccco3)c2)c1	2.28
S=c1[nH]nc(-c2cccc(Cl)c2)n1Cc1ccccc1	9.23
Cc1nn(-c2ccccc2)c(C)c1/C=N/n1c(-c2ccncc2)n[nH]c1=S	13.6
O=C(CN1C(=O)C2CC=CCC2C1=O)NCc1ccc2c(c1)OCO2 (stereo not shown)	13.2
CCN(CC)C(=O)CSc1nc(OC)cc(=O)[nH]1	-15.8
CC(=O)Nc1ccc(NC(=O)C(C)OC(=O)CN(C)S(=O)(=O)c2ccc(Cl)cc2)cc1 (stereo not shown)	14.2
NNC(=O)c1ccccc1-n1cccc1	7.59
COc1ccc(NC(=O)CSC2CC(=O)N(c3ccc4c(c3)OCCO4)C2=O)cc1 (stereo not shown)	5.42
O=c1[nH]c2cc3c(cc2cc1CN(CCO)S(=O)(=O)c1ccccc1)OCCO3	4.77
CC1(C)N([O-])C(c2cccs2)=C[N+]1=O	6.3
COc1cc(C(=O)OC(C)C(=O)NCC2CCCCC2)cc(NC(=O)c2ccco2)c1OC (stereo not shown)	9.53
Cc1cc(NC(=O)CSCC(=O)Nc2cccc(S(=O)(=O)N3CCCCCC3)c2)no1	3.35
COc1ccc(NS(=O)(=O)c2ccc3c(c2)N(C(C)=O)CCS3)cc1	4.11
Cc1ccccc1Cn1ccc(-c2ccc(Cl)cc2)c(C#N)c1=O	0.652
O=C(O)CSc1c(-c2cccs2)[nH]c2ccccc12	3.3
Cc1c(NC(=O)COC(=O)/C=C/c2cccc(Cl)c2)c(=O)n(-c2ccccc2)n1C	1.01
COc1ccccc1NS(=O)(=O)c1ccc(N2CCOCC2)c(NC(=O)c2ccco2)c1	7.66
CNC(=S)NC1CC2CCC(C1)N2Cc1ccccc1 (stereo not shown)	3.28
CC(=O)N(C)c1ccc(OCC(O)CN(Cc2ccco2)S(=O)(=O)c2ccc(C)cc2)cc1 (stereo not shown)	-3.56
CC(C)(C)C(=O)CSc1ccc(S(=O)(=O)N2CCCC2)cn1	0.498
CCO[C@@H]1OC(C(=O)N2CCN(Cc3ccccc3)CC2)=C[C@H](c2ccc(Br)cc2)[C@H]1CCCO	6.88

SMILES	hERG current change (%, negative = inhibition) at 1uM [%]
Cc1ccc(C)c(-c2nnc(NC(=O)C3=COCCO3)o2)c1	10.8
Cc1ccc(OCC(=O)NNC(=O)CSc2ncnc3sc(C)c(C)c23)cc1	10.2
Cc1ccc2nc(Cl)c3cc(C(=O)N(CCN(C)C)Cc4ccco4)sc3c2c1	3.17
CC1CCCCC1NS(=O)(=O)c1ccc2c(c1)CCC(=O)N2 (stereo not shown)	6.32
CNC(=O)c1ccc(NC(=O)C2CCN(S(=O)(=O)c3cccc(C(F)(F)F)c3)CC2)cc1	6.57
Nc1cc(C(=O)OCC(=O)NNC(=O)c2ccccc2)ccc1Cl	14.9
COc1ccc(/C=C/C(=O)NC(=S)Nc2cc3oc4ccccc4c3cc2OC)cc1	7.88
CCCC(=O)Nc1nc2nc(-c3ccccc3)cc(=O)n2[nH]1	13.1
COc1ccc(C2C(C(=O)NCCN(C)C)c3ccccc3C(=O)N2C)cc1OC (stereo not shown)	11.8
COc1ccc2nc(-c3ccccc3)nc(SCC(=O)NCC3CCCO3)c2c1 (stereo not shown)	16.9
CCN(CC)S(=O)(=O)c1ccc(O)c(NS(=O)(=O)c2ccccc2F)c1	18.4
CCOC(=O)CSc1nnc(Cn2c(=O)sc3ccccc32)n1C	-3.18
CCOc1ccc(N(CC(=O)NCc2ccc(OC)cc2)S(C)(=O)=O)cc1	9
COc1cccc(NC(=O)N2CCC(N3CCCCC3)CC2)c1	8.7
CC(=O)N1CCc2cc(S(=O)(=O)NC(Cc3ccccc3)C(=O)O)ccc21 (stereo not shown)	9.82
Nc1nc(Sc2ncccc2[N+](=O)[O-])n[nH]1	10.3
CCOC(=O)c1sc2nccc(N(C)C)c2c1N=CNOCc1c(F)cccc1Cl	4.42
Cc1ccccc1OCC(=O)N/N=C/c1ccc(N(C)C)cc1	2.34
O=S(=O)(Nc1ccc(S(=O)(=O)N2CCOCC2)cc1)c1ccccc1	1.55
CC(=O)c1ccc(N2CCN(c3ccc(S(=O)(=O)N4CCN(C)CC4)cn3)CC2)cc1	7.23
CCc1nnc(NC(=O)OCc2ccccc2)s1	3.72
c1cc(Nc2cccc3nccnc23)c2nccnc2c1	8.07

SMILES	hERG current change (%, negative = inhibition) at 1uM [%]
O=C(Nc1ccccc1N1CCN(C(=O)c2ccc(Cl)cc2)CC1)c1ccc2c(c1)OCO2	-5.35
O=C(COC(=O)c1cccs1)Nc1ccccc1C(F)(F)F	10.5
CC(=O)c1c(C)oc2ccc(NS(=O)(=O)c3ccc(F)cc3C)cc12	2.39
CCCc1nc(SCC(=O)Nc2nc3c(s2)CCCC3)c2ccccc2n1	9.16
CC(Oc1ccc(F)cc1)C(=O)Nc1cc(S(=O)(=O)N2CCOCC2)ccc1N1CCCCC1 (stereo not shown)	14.1
COc1ccc(-n2nnnc2SCC(=O)NNC(=O)c2ccc([N+](=O)[O-])cc2)cc1	2.98
COc1ccc(NC(=O)CCCNC(=O)Cn2cnc3sc(C)c(C)c3c2=O)c(OC)c1	16.4
CC1(C)Cc2ccccc2-c2nnc(SCc3ccc(C#N)cc3)n21	-32.4
Cc1noc(C)c1COc1ccc(C(=O)Nc2ccccc2)cc1	17.4
Cc1cc(C)nc(SCc2ccc(C(=O)N/N=C/c3ccccn3)cc2)n1	-11.7
CCOc1ccc(Nc2nc(N)nc(CCl)n2)cc1	7.02
O=c1[nH]c(Sc2ccc([N+](=O)[O-])cc2[N+](=O)[O-])nc2ccccc12	10.7
CS(=O)(=O)Nc1ccccc1C(=O)O	-16.3
O=C(Nc1nc2ccc(Cl)cc2s1)[C@@H]1CCCN1C(=O)c1cccs1	7.76
Cc1ccc(CNC(=O)c2ccc(Cn3nc(C)c(Cl)c3C)o2)cc1	5.48
S=C(NCCN1CCCCC1)Nc1ccccc1	13.5
CCOc1cc(C(=O)N[C@@H](C)C(=O)N2CCC3(CC2)NCCc2[nH]cnc23)cc(OCC)c1OCC	18
CC(C)C[C@@H]1NC(=O)[C@H](C(C)C)NC(=O)c2cc([N+](=O)[O-])cc(I)c2OCC[C@@H](C(N)=O)NC1=O	14.2
Cc1ccc(N2CC(C(=O)NC3CC3)CC2=O)cc1 (stereo not shown)	17.4
C/C(CCc1oc2ccc(Cl)cc2c1-c1ccc(C)o1)=N\O	26
Cc1ccc[n+](Cc2ccc([N+](=O)[O-])cc2)c1.[Br-]	16.4
O=C(NCc1cccc(F)c1F)C1CCC(=O)N(C2CCCCCC2)C1 (stereo not shown)	3
